# In the antibiotic and cytotoxicity screens of Wong et al. (2023):
# The other results are listed elsewhere or left out.
# Assays:
# HSkMC = human skeletal muscle cells; assay: cytotoxicity call (relative viability < 0.9); conditions: 10 µM
# HepG2 = assay: cytotoxicity call (relative viability < 0.9); conditions: 10 µM
# S. aureus RN4220 = assay: growth inhibition call (relative growth <= 0.2); conditions: 50 µM
SMILES,cytotoxicity call (HSkMC),cytotoxicity call (HepG2),growth inhibition call (S. aureus RN4220)
C[C@@H]1CN([C@@H](C)CO)C(=O)c2cc(NC(=O)C3CCCCC3)ccc2O[C@@H]1CN(C)Cc1ccc(Cl)c(Cl)c1,inactive,inactive,inactive
O=c1nc[nH]c2nc[nH]c12,inactive,inactive,inactive
CC1C(=O)OC2C1CCC1(C)CCC(=O)C(C)C21 (stereo not given),inactive,inactive,inactive
Cc1noc(C)c1NC(=O)Nc1cccc2c1O[C@H](CN(C)Cc1ccc(Cl)c(Cl)c1)[C@H](C)CN([C@H](C)CO)C2=O,inactive,inactive,inactive
C[C@H](CO)N1C[C@H](C)[C@@H](CN(C)S(=O)(=O)c2ccccc2)Oc2ncc(C#Cc3ccccc3F)cc2C1=O,inactive,inactive,inactive
Nc1ccc(NC(=O)CCN2CCOCC2)cc1,inactive,inactive,inactive
C[C@@H]1CCCCO[C@H](CN(C)C(=O)NC2CCCCC2)[C@H](C)CN([C@H](C)CO)C(=O)c2cc(NC(=O)Nc3ccc(F)cc3)ccc2O1,inactive,active,inactive
COc1c2ccoc2c(OC)c2oc(=O)ccc12,inactive,active,inactive
C[C@@H]1CN([C@H](C)CO)C(=O)c2cccc(NC(=O)Nc3ccccc3)c2O[C@H]1CN(C)S(C)(=O)=O,inactive,inactive,inactive
Cc1noc(C)c1NC(=O)Nc1ccc2c(c1)C(=O)N([C@H](C)CO)C[C@H](C)[C@H](CN(C)CC1CCCCC1)OCCCC[C@H](C)O2,inactive,inactive,inactive
